# PubChem BioAssay AID761 (NMMLSC, 2007)
# The whole screen tested about 190,000 compounds, of which about 400 (0.21%) were called active. The shares of active, inactive and inconclusive entries below differ from those in the screen.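 Rule for the calls: active = percent activity GTP binding at least 20 points away from the 100% baseline, either down as inhibitor or up as activator; inconclusive = compound flagged as likely green fluorescent from well-wide comparison; inactive = the rest.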
# Molecular target: Cell division control protein 42 homolog (Homo sapiens) (UniProt P60953)
# Test: wildtype Cdc42 fluorescent GTP binding changes, either direction – biochemical, multiplex bead flow cytometry, Bodipy-GTP, primary screen (AID 761);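 note: median bead fluorescence of bound Bodipy-FL-GTP at 100 nM; 0% = excess unlabeled GTP control and 100% = no compound control; below 100% means less GTP binding so inhibitor and above means activator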
# Details: GST-Cdc42 beads, at 10 µM, actives lie on both sides
# UniProt P60953, sequence (P60953 whole entry, looked up): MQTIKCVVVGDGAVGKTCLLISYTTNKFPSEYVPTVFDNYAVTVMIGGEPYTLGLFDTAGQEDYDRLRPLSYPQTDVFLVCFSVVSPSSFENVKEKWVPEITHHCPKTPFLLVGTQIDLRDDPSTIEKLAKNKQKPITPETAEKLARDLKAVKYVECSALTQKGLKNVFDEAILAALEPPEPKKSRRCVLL
row,SMILES,percent activity (GTP binding)
1,Cc1ccc2c(c1)[C@@H](O)C[C@@H](C)N2N=O,inconclusive: 106%
2,O=[N+]([O-])c1cc(-c2nc(-c3ccncc3)no2)cc([N+](=O)[O-])c1,inactive: 104%
3,CCNC(=S)Nc1ccc(S(=O)(=O)Nc2cc(C)nc(C)n2)cc1,inactive: 99%
4,COc1ccc(NC(=O)c2ccc3c(=O)n(-c4ccc(OC)cc4OC)c(=S)[nH]c3c2)c(OC)c1,inconclusive: 93%
5,Cn1c(NC(=O)c2cc(-c3ccc4c(c3)OCO4)nc3ccccc23)cc(=O)n(C)c1=O,inconclusive: 111%
6,COc1ccc(N=C2C(=O)N3c4c(cccc42)C(C)=CC3(C)C)cc1,inactive: 101%
7,Cc1ccc(-c2nn(-c3cc(N4CCNCC4)ccc3[N+](=O)[O-])c(=O)c3ccccc23)cc1,inactive: 103%
8,Cc1cc(C(=O)Nc2c[nH]c(=O)[nH]c2=O)ccc1[N+](=O)[O-],inconclusive: 93%
9,COc1cc(C(=O)NC(=S)Nc2ccc3c(c2)C(=O)N(C)C3=O)cc(OC)c1OC,inactive: 96%
10,CCc1ccc(OCCCC(=O)O)c(Br)c1,inconclusive: 105%
11,O=C(NCCc1c[nH]c2ccccc12)C1CCC(Cn2c(=S)[nH]c3ccccc3c2=O)CC1 (configuration not stated),inconclusive: 103%
12,Cc1cc(-c2ccccc2)nc(SCC(=O)N2CCCC2)n1,inactive: 97%
13,COc1cc(C(=O)Nc2cc(C)ccn2)cc(OC)c1OC,inconclusive: 103%
14,CO/N=C/c1ccc(N2CCCC2)c([N+](=O)[O-])c1,inconclusive: 92%
15,Cc1ccc(CNC(=O)c2ccccc2N)cc1,inconclusive: 105%
16,COc1cc(CN2CCN(C(C)C)C(CCO)C2)ccc1OCc1ccccc1 (configuration not stated),inactive: 100%
17,COc1ccc(-n2nnnc2SCc2nc(N)nc(N3CCOCC3)n2)cc1,inconclusive: 103%
18,CN(CCc1cn[nH]c1)Cc1nc(C(c2ccccc2)c2ccccc2)no1,inconclusive: 95%
19,COc1cc(C(=O)Nc2ccncc2)cc(OC)c1OC,inconclusive: 104%
20,O=C(CCS(=O)(=O)c1cc(Br)cc2c1N(C(=O)C1CC1)CC2)NCc1ccco1,inconclusive: 108%
21,CC(=O)N1CCc2cc(S(=O)(=O)NC3CCCc4ccccc43)ccc21 (configuration not stated),inconclusive: 103%
22,COc1ccccc1CNc1nc(S(=O)(=O)c2ccccc2)c(Cl)s1,inconclusive: 105%
23,Cc1ccc(/C([O-])=C(/C(=S)NCc2ccccc2)[n+]2cccc(CO)c2)cc1[N+](=O)[O-],inconclusive: 90%
24,COC(=O)c1c(-c2ccc3ccccc3c2)csc1NC(=O)Cc1ccc(OC)c(OC)c1,inactive: 99%

row,SMILES,percent activity (GTP binding)
1,O=C(Cn1nc2ccccc2n1)N/N=C/c1cc([N+](=O)[O-])ccc1O,active: 70%
2,CCS(=O)(=O)C1=NSC2=NC(=O)/C(=C\c3cc(C)n(-c4cccc(OC)c4)c3C)C(=N)N21,inactive: 93%
3,c1ccc2[nH]c(CSc3nc4ccccc4s3)nc2c1,inconclusive: 107%
4,COC(=O)c1c(N)sc(C(=O)N2CCOCC2)c1C,inconclusive: 102%
5,O=C(NCCO)/C(=C\c1cccs1)NC(=O)c1cccs1,inconclusive: 107%
6,CC(C)NC(=O)C12CC3CC(C1)CC(n1cnc(Cl)n1)(C3)C2,inactive: 111%
7,Brc1cccc(-c2cnco2)c1,inactive: 98%
8,C[C@@H]1CN(C(=O)c2nc3ccc(Cl)cn3c2CN2CCc3sccc3C2)C[C@H](C)O1,inactive: 94%
9,Cc1ccc(C(=O)C(C)OC(=O)c2cc3cc([N+](=O)[O-])ccc3oc2=O)cc1 (configuration not stated),inconclusive: 83%
10,COCCn1c(SCC(=O)N2CCCCC2)nc2ccccc2c1=O,inconclusive: 110%
11,Cc1sc2nc3c(SC(C)C(=O)O)cc(C(=O)c4ccccc4O)cn3c(=O)c2c1C (configuration not stated),inactive: 83%
12,COc1cc(N2CCCC2)c(OC)cc1/C=C(/C#N)c1ccc(F)cc1,inconclusive: 108%
13,CCCS(=O)(=O)c1nnnn1-c1cccc(OC)c1,inactive: 80%
14,COc1ccc(-n2cnc3ccccc32)cc1,inconclusive: 104%
15,CN(C)/C=C1\C(=O)N(c2ccc(Cl)cc2)CS1(=O)=O,inconclusive: 104%
16,Cc1ccc(S(=O)(=O)/N=C2/C=C(Sc3ncn[nH]3)C(=O)c3ccccc32)c(C)c1,inconclusive: 90%
17,CCOc1ncccc1C(=O)Nc1ccc(OC)c(S(=O)(=O)N2CCCCC2)c1,inconclusive: 94%
18,CCOC(=O)C1=NN(C(=O)COc2ccccc2)C(O)(c2ccc(Br)cc2)C1 (configuration not stated),inconclusive: 91%
19,CC(C)CNC(=O)c1cccc(NC(=O)C(C)C)c1,inactive: 103%
20,COc1ccccc1CNc1n[nH]c(NCc2ccccc2OC)n1,inconclusive: 105%
21,CC(=O)C1=C(C)NC2(O)c3ccccc3C(=O)C12O (configuration not stated),inconclusive: 92%
22,O=C(Cn1nnc2ccccc21)c1cccc([N+](=O)[O-])c1,inconclusive: 106%
23,O=C(/C=C/c1ccc(Cl)cc1)NC(=S)Nc1ccc(NC(=O)c2ccco2)cc1,inactive: 98%
